Changes are numbered by the printed parent chain; changes in the protein carry UniProt numbers. This is one part of the list.
T1: RBFOX1 RRM RbFoxmut (Fox-RRM*) (Homo sapiens, UniProt Q9NWB1 109-208, R118D;E147R;N151S;E152T)
T1 sequence: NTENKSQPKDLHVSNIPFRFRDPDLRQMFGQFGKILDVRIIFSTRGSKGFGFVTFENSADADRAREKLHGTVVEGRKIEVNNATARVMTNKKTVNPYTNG

B1: CUCCUCG (DNA:RNA)
RNA: GGGAGACCGGAAUUCAGAUUGUCCCUCCUCGUUAAAUCCCGUCGUAGCCACCA
DNA 1: CAATCTGAATTCCGGTCTCCC
DNA 2: TGGTGGCTACGACGGGATT
B2: GACACCA (DNA:RNA)
RNA: B1 RNA with C25G, U26A, C28A, U29C, G31A
DNA 1: CAATCTGAATTCCGGTCTCCC
DNA 2: TGGTGGCTACGACGGGATT
B3: GUUGCGU (DNA:RNA)
RNA: B1 RNA with C25G, C27U, C28G, U29C, C30G, G31U
DNA 1: CAATCTGAATTCCGGTCTCCC
DNA 2: TGGTGGCTACGACGGGATT
B4: GCCUUUG (DNA:RNA)
RNA: B1 RNA with C25G, U26C, C28U, C30U
DNA 1: CAATCTGAATTCCGGTCTCCC
DNA 2: TGGTGGCTACGACGGGATT
B5: GAGCUGU (DNA:RNA)
RNA: B1 RNA with C25G, U26A, C27G, C30G, G31U
DNA 1: CAATCTGAATTCCGGTCTCCC
DNA 2: TGGTGGCTACGACGGGATT
B6: GGGGGCA (DNA:RNA)
RNA: B1 RNA with C25G, U26G, C27G, C28G, U29G, G31A
DNA 1: CAATCTGAATTCCGGTCTCCC
DNA 2: TGGTGGCTACGACGGGATT
B7: CUCCAGG (DNA:RNA)
RNA: B1 RNA with U29A, C30G
DNA 1: CAATCTGAATTCCGGTCTCCC
DNA 2: TGGTGGCTACGACGGGATT
B8: AGUACAA (DNA:RNA)
RNA: GGGAGACCGGAAUUCAGAUUGUCCAGUACAAUUAAAUCCCGUCGUAGCCACCA
DNA 1: CAATCTGAATTCCGGTCTCCC
DNA 2: TGGTGGCTACGACGGGATT
B9: AUAUUCA (DNA:RNA)
RNA: B1 RNA with C25A, C27A, C28U, G31A
DNA 1: CAATCTGAATTCCGGTCTCCC
DNA 2: TGGTGGCTACGACGGGATT
B10: GUAUCAU (DNA:RNA)
RNA: B8 RNA with A25G, G26U, U27A, A28U, A31U
DNA 1: CAATCTGAATTCCGGTCTCCC
DNA 2: TGGTGGCTACGACGGGATT
B11: AGGACUU (DNA:RNA)
RNA: B8 RNA with U27G, A30U, A31U
DNA 1: CAATCTGAATTCCGGTCTCCC
DNA 2: TGGTGGCTACGACGGGATT
B12: CAAAUGA (DNA:RNA)
RNA: B8 RNA with A25C, G26A, U27A, C29U, A30G
DNA 1: CAATCTGAATTCCGGTCTCCC
DNA 2: TGGTGGCTACGACGGGATT
B13: CGUGUCG (DNA:RNA)
RNA: B1 RNA with U26G, C27U, C28G
DNA 1: CAATCTGAATTCCGGTCTCCC
DNA 2: TGGTGGCTACGACGGGATT
B14: CUAGGCA (DNA:RNA)
RNA: B1 RNA with C27A, C28G, U29G, G31A
DNA 1: CAATCTGAATTCCGGTCTCCC
DNA 2: TGGTGGCTACGACGGGATT
B15: AUGCAAC (DNA:RNA)
RNA: B8 RNA with G26U, U27G, A28C, C29A, A31C
DNA 1: CAATCTGAATTCCGGTCTCCC
DNA 2: TGGTGGCTACGACGGGATT
B16: AACACAG (DNA:RNA)
RNA: B8 RNA with G26A, U27C, A31G
DNA 1: CAATCTGAATTCCGGTCTCCC
DNA 2: TGGTGGCTACGACGGGATT
B17: CGAUCCA (DNA:RNA)
RNA: B8 RNA with A25C, U27A, A28U, A30C
DNA 1: CAATCTGAATTCCGGTCTCCC
DNA 2: TGGTGGCTACGACGGGATT
B18: AGCCAGG (DNA:RNA)
RNA: B1 RNA with C25A, U26G, U29A, C30G
DNA 1: CAATCTGAATTCCGGTCTCCC
DNA 2: TGGTGGCTACGACGGGATT
B19: GAAUUCC (DNA:RNA)
RNA: B1 RNA with C25G, U26A, C27A, C28U, G31C
DNA 1: CAATCTGAATTCCGGTCTCCC
DNA 2: TGGTGGCTACGACGGGATT
B20: CUGCGGA (DNA:RNA)
RNA: B1 RNA with C27G, U29G, C30G, G31A
DNA 1: CAATCTGAATTCCGGTCTCCC
DNA 2: TGGTGGCTACGACGGGATT
B21: CCUCUAU (DNA:RNA)
RNA: B1 RNA with U26C, C27U, C30A, G31U
DNA 1: CAATCTGAATTCCGGTCTCCC
DNA 2: TGGTGGCTACGACGGGATT
B22: AGUGCGG (DNA:RNA)
RNA: B8 RNA with A28G, A30G, A31G
DNA 1: CAATCTGAATTCCGGTCTCCC
DNA 2: TGGTGGCTACGACGGGATT
B23: ACCGGUC (DNA:RNA)
RNA: B8 RNA with G26C, U27C, A28G, C29G, A30U, A31C
DNA 1: CAATCTGAATTCCGGTCTCCC
DNA 2: TGGTGGCTACGACGGGATT
B24: UGUAGUC (DNA:RNA)
RNA: B8 RNA with A25U, C29G, A30U, A31C
DNA 1: CAATCTGAATTCCGGTCTCCC
DNA 2: TGGTGGCTACGACGGGATT
B25: ACCAAUG (DNA:RNA)
RNA: B8 RNA with G26C, U27C, C29A, A30U, A31G
DNA 1: CAATCTGAATTCCGGTCTCCC
DNA 2: TGGTGGCTACGACGGGATT
B26: CACGACC (DNA:RNA)
RNA: B1 RNA with U26A, C28G, U29A, G31C
DNA 1: CAATCTGAATTCCGGTCTCCC
DNA 2: TGGTGGCTACGACGGGATT
B27: UUAAUAG (DNA:RNA)
RNA: B1 RNA with C25U, C27A, C28A, C30A
DNA 1: CAATCTGAATTCCGGTCTCCC
DNA 2: TGGTGGCTACGACGGGATT
B28: ACCUUAU (DNA:RNA)
RNA: B8 RNA with G26C, U27C, A28U, C29U, A31U
DNA 1: CAATCTGAATTCCGGTCTCCC
DNA 2: TGGTGGCTACGACGGGATT
B29: CCGGCGU (DNA:RNA)
RNA: B8 RNA with A25C, G26C, U27G, A28G, A30G, A31U
DNA 1: CAATCTGAATTCCGGTCTCCC
DNA 2: TGGTGGCTACGACGGGATT
B30: CGUACCU (DNA:RNA)
RNA: B8 RNA with A25C, A30C, A31U
DNA 1: CAATCTGAATTCCGGTCTCCC
DNA 2: TGGTGGCTACGACGGGATT
B31: AUAAGCG (DNA:RNA)
RNA: B1 RNA with C25A, C27A, C28A, U29G
DNA 1: CAATCTGAATTCCGGTCTCCC
DNA 2: TGGTGGCTACGACGGGATT

These binders were tested against T1, RBFOX1 RRM RbFoxmut (Fox-RRM*) (assay: EMSA; HiTS-Eq, 1 nM pool, 10 min; buffer printed only for the single-RNA assays: 10 mM Tris pH 7.5, 150 mM NaCl, 3.4 mM EDTA, 0.001% NP-40, 30 C). Conditions: tags: His6 N-terminal (pET28a); label: 5' 32P.
Outline: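 A pool of RNA with 7 randomized nucleotides, 5′-radiolabelled and with DNA-annealed flanks, was equilibrated at 1 nM for 10 min in 50 µL with purified RbFox RRM, wild type or mutant, across increasing protein concentrations. Free RNA was separated by 8% native PAGE, excised, reverse-transcribed, barcoded by PCR and sequenced. Relative association constants were obtained from read-count changes of each RNA species versus the control reaction and normalised to the cognate motif.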

Binder | binding signal
B1 | 0.0975 KA relative to UGCAUGU
B2 | 0.0708 KA relative to UGCAUGU
B3 | 0.17 KA relative to UGCAUGU
B4 | 0.0902 KA relative to UGCAUGU
B5 | 0.11 KA relative to UGCAUGU
B6 | 0.128 KA relative to UGCAUGU
B7 | 0.0613 KA relative to UGCAUGU
B8 | 0.0581 KA relative to UGCAUGU
B9 | 0.12 KA relative to UGCAUGU
B10 | 0.21 KA relative to UGCAUGU
B11 | 0.063 KA relative to UGCAUGU
B12 | 0.0896 KA relative to UGCAUGU
B13 | 0.126 KA relative to UGCAUGU
B14 | 0.114 KA relative to UGCAUGU
B15 | 0.0614 KA relative to UGCAUGU
B16 | 0.0745 KA relative to UGCAUGU

Binder | binding signal
B17 | 0.117 KA relative to UGCAUGU
B18 | 0.108 KA relative to UGCAUGU
B19 | 0.0427 KA relative to UGCAUGU
B20 | 0.126 KA relative to UGCAUGU
B21 | 0.114 KA relative to UGCAUGU
B22 | 0.107 KA relative to UGCAUGU
B23 | 0.103 KA relative to UGCAUGU
B24 | 0.178 KA relative to UGCAUGU
B25 | 0.109 KA relative to UGCAUGU
B26 | 0.0654 KA relative to UGCAUGU
B27 | 0.0804 KA relative to UGCAUGU
B28 | 0.134 KA relative to UGCAUGU
B29 | 0.125 KA relative to UGCAUGU
B30 | 0.099 KA relative to UGCAUGU
B31 | 0.126 KA relative to UGCAUGU
